Experimental data taken from the supplement of paper PMC4604168 (melanoma cell lines).
The other results are listed elsewhere or left out. Single values are uncertain, as repeats are few or missing.

Tested on: A375
Assay: cell count relative to DMSO control; melanoma cells; higher = more viable cells
Conditions: library dose: standard library concentration; 72 h
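Also: cells treated in 1,536-well plates, then fixed and DAPI-stained, with nuclei counted from automated high-throughput microscope images.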

**Q.** `C#Cc1cccc(Nc2ncnc3cc(OCCOC)c(OCCOC)cc23)c1` [erlotinib] + C/C(O)=C(\C#N)C(=O)Nc1cc(Br)ccc1Br [LFM-A13] (first compound 4 µM, partner dose 10 µM) was tested. Which cell count did it give?
**A.** The cell count was 123%.

**Q.** `O=C(O)C(=O)Nc1sc2c(c1C(=O)O)CCNC2` + O=C(Oc1ccc([N+](=O)[O-])cc1)N1CCC(C(O)(c2ccc3c(c2)OCO3)c2ccc3c(c2)OCO3)CC1 [JZL184] (first compound 8.33333 µM, partner dose 5 µM) was tested. Which cell count did it give?
**A.** Its cell count is 161%.

**Q.** Which cell count does the source give for `Cc1cc(Nc2cc(N3CCN(C)CC3)nc(Sc3ccc(NC(=O)C4CC4)cc3)n2)n[nH]1` [Tozasertib] + O=C(Oc1ccc([N+](=O)[O-])cc1)N1CCC(C(O)(c2ccc3c(c2)OCO3)c2ccc3c(c2)OCO3)CC1 [JZL184] (first compound 0.03 µM, partner dose 5 µM) here?
**A.** Its cell count is 106%.

**Q.** Which cell count does the source give for `CC(C)C[C@H](NC(=O)[C@H](Cc1ccccc1)NC(=O)c1cnccn1)B(O)O` [Bortezomib] + O=C(Oc1ccc([N+](=O)[O-])cc1)N1CCC(C(O)(c2ccc3c(c2)OCO3)c2ccc3c(c2)OCO3)CC1 [JZL184] (first compound 0.005 µM, partner dose 5 µM) here?
**A.** Its cell count is 84.5%.

**Q.** `Nc1ccn([C@@H]2O[C@H](CO)[C@@H](O)C2(F)F)c(=O)n1` [gemcitabine] + C/C(O)=C(\C#N)C(=O)Nc1cc(Br)ccc1Br [LFM-A13] (first compound 0.002 µM, partner dose 10 µM) was tested. Which cell count did it give?
**A.** Its cell count is 91.4%.

**Q.** `O=C1NC(=O)/C(=C/c2ccc(-c3ccc(F)cc3O)o2)S1` + O=C(Oc1ccc([N+](=O)[O-])cc1)N1CCC(C(O)(c2ccc3c(c2)OCO3)c2ccc3c(c2)OCO3)CC1 [JZL184] (first compound 5 µM, partner dose 5 µM) was tested. Which cell count did it give?
**A.** Its cell count is 122%.

**Q.** For `Cn1c(Nc2ccc(C(F)(F)F)cc2)nc2cc(Oc3ccnc(-c4ncc(C(F)(F)F)[nH]4)c3)ccc21` + C/C(O)=C(\C#N)C(=O)Nc1cc(Br)ccc1Br [LFM-A13] (first compound 0.4 µM, partner dose 10 µM), which cell count is on record?
**A.** Its cell count is 72%.

**Q.** `COCC[n+]1c2c(n(Cc3cnccn3)c1C)C(=O)c1ccccc1C2=O` + C/C(O)=C(\C#N)C(=O)Nc1cc(Br)ccc1Br [LFM-A13] (first compound 0.002 µM, partner dose 10 µM) was tested. Which cell count did it give?
**A.** The cell count was 88.5%.

**Q.** How did the cell count turn out when `Cc1nc(Nc2ncc(C(=O)Nc3c(C)cccc3Cl)s2)cc(N2CCN(CCO)CC2)n1` [dasatanib] + C/C(O)=C(\C#N)C(=O)Nc1cc(Br)ccc1Br [LFM-A13] (first compound 0.02 µM, partner dose 10 µM) was run?
**A.** The cell count was 76.5%.

**Q.** With `C[C@@H]1CCN(C(=O)CC#N)C[C@@H]1N(C)c1ncnc2[nH]ccc12` + Cc1cc(SCc2sc(-c3ccc(C(F)(F)F)c(F)c3)nc2C)ccc1OCC(=O)O [GW0742] (first compound 5 µM, partner dose 10 µM) as the compound, how does the cell count read?
**A.** Its cell count is 114%.

**Q.** Which cell count does the source give for `COCC[n+]1c2c(n(Cc3cnccn3)c1C)C(=O)c1ccccc1C2=O` + Cc1cc(SCc2sc(-c3ccc(C(F)(F)F)c(F)c3)nc2C)ccc1OCC(=O)O [GW0742] (first compound 0.002 µM, partner dose 10 µM) here?
**A.** The cell count was 99.7%.

**Q.** For `CC(C)C[C@H](NC(=O)[C@H](Cc1ccccc1)NC(=O)c1cnccn1)B(O)O` [Bortezomib] + C/C(O)=C(\C#N)C(=O)Nc1cc(Br)ccc1Br [LFM-A13] (first compound 0.005 µM, partner dose 10 µM), which cell count is on record?
**A.** Its cell count is 91.2%.

**Q.** For `Oc1cc(-c2nc(-c3ccccc3)[nH]c2-c2ccncc2)ccc1Cl` + O=C(Oc1ccc([N+](=O)[O-])cc1)N1CCC(C(O)(c2ccc3c(c2)OCO3)c2ccc3c(c2)OCO3)CC1 [JZL184] (first compound 1 µM, partner dose 5 µM), which cell count is on record?
**A.** Its cell count is 94.1%.
